Results reported in the supplement of paper PMC11417369.
The list shows a part of the results.

The sequences below were run on PfHDP1 homeodomain (GST-tagged) (assay: gcPBM binding intensity (ln(normalized median fluorescence intensity)); higher = stronger DNA binding).
Summary of the method: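 GST-fused DNA-binding domains of P. falciparum, expressed in E. coli, were applied at about 25 μg on average for 1 h to an Agilent 4 × 180k array of primer-extended double-stranded 36-bp intergenic genomic probes and negative controls. Binding intensity is the highest Masliner-normalised natural-log median intensity across replicate spots of either probe orientation, measured with Alexa488 anti-GST antibody and a 488 nm scan.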

| Sequence | gcPBM binding intensity (ln) |
| --- | --- |
| AAAAAGTTACATGGTGGTACTCAAATAAAATATTCT [XGTACX_site5993] | 6.06 |
| AATAAATTACTATGTACACACATAAGAGTATAAATA [CACACA_site6940] | 6.75 |
| TTATAAAATGGGCAAACACACACAAAAAAAAGATAT [CACACA_site8476] | 7.42 |
| ATTATCCATGCATTTACACACACACTAAAAAAAATT [CACACA_site7848] | 7.42 |
| AATTAAATTTATATGAATGTCAATTATATTGTTATA [XGTACX_negctrl_site261] | 5.99 |
| ATGTATATATATTTGTGTACATATTTAGGAAATAAA [XGTACX_site2904] | 6.43 |
| ATAAAACAACACACTTGTACTAATTTTTTTTTTTTT [XGTACX_site8377] | 6.32 |
| TGAATAAATAGACACACACACATATATAAATATGTA [CACACA_site6159] | 6.43 |
| TAATTTATAAGGTATAACAACAATTGCATCTATCAC [XGTACX_negctrl_site314] | 7 |
| GAAAGAATAAAATTTACACACATATATAAATACATA [CACACA_site5273] | 6.2 |
| AAATATTTTAACGAGAGTACATAATAACAATTTATG [XGTACX_site3865] | 6.35 |
| AAAAAAAAAAAATACACACACACATATATATATATA [CACACA_site731] | 9.39 |
| TTTTTTTTTTTTTATTGTACTAAATTATAGAGGGGA [XGTACX_site2609] | 6.31 |
| TATATATTTGTAACGGGTACGTAGGTGTATATTCCA [XGTACX_site6028] | 6.77 |
| AGCCACGTGGTATATACACACATAATCAAATAAAAT [CACACA_site9364] | 6.66 |
| GAAACGATTTAATACACACACGTATTATAGATATAT [CACACA_site6666] | 6.74 |
| TTTTTTTTTTTTTTGACACACATAATAAAATACAAA [CACACA_site3080] | 6.56 |
| AATAAGCATATACAAACATGCATACATATAAATAAA [TGCATGCA_site338] | 6.63 |
| CTACATACAAGAATTAAACACACACTAATTATAAAT [CACACA_site8986] | 6.83 |
| CCTCAATATTCACATACACACAATATCATCGAAGTA [CACACA_site1676] | 6.87 |
| AATAAATATAGGTACACACACAAATATGTACATATC [CACACA_site6976] | 6.71 |
| AAAGAAAGGAATACGACACACAAAAAAAAAATATAT [CACACA_site1934] | 6.72 |

| Sequence | gcPBM binding intensity (ln) |
| --- | --- |
| TAGTTGCACATGTATACACACAAAAAATATTTTATG [CACACA_site475] | 10.4 |
| AAGTGGTTATAATCAACACACGTGGAATGTACTTTA [CACACA_site3700] | 6.44 |
| AAGAAACCATAATATGCATGCACATATTAATAAATA [TGCATGCA_site693] | 9.2 |
| TTATAATTTTAATGTGCACACAATTAAAATATTATA [CACACA_site5172] | 10.2 |
| TGTAAGAAATTGAGCGCACACATACATCTGTGGGAT [CACACA_site4945] | 7 |
| TATTGACAAAAAAAAAAAAGGTAAAAAAGAAAGAAA [GTGCAC_negctrl_site418] | 6.28 |
| TTTTGTTTATGTGTGCATTATATTATATTTTTTATT [TGCATGCA_negctrl_site146] | 10.2 |
| TATAAATAAATATACACACACACATATAAATATGTA [CACACA_site6504] | 6.76 |
| ATTATATATAAGAAGAGTACTGAATATGTGCAATAT [XGTACX_site4471] | 11.2 |
| TTATAGAAAATGGAATAGAATGGAATGGAAGAAATA [CACACA_negctrl_site1086] | 7.13 |
| TATATACACCCACATACACACAAATAAAAAAACACC [CACACA_site3414] | 7.5 |
| GACATTGATACCAGTAGTACCTATAGATGTTTGTTT [XGTACX_site5736] | 6.34 |
| TTATGGAATAATCACGTACACACAAGAAAAAAAAAA [CACACA_site526] | 6.59 |
| ATATAAGGATTAATATGTACATATATATATATATTT [XGTACX_site1390] | 6.48 |
| TTTGTATATTATTTTAGTACATAACATTGAAGATAT [XGTACX_site6680] | 6.31 |
| TATTTTGAAACTAAAAGACATAGAGAAAACAAAAAA [CACACA_negctrl_site1306] | 6.56 |
| ATGTTGCACAGTGGAAGAATTAAAAATAAATAAATA [XGTACX_negctrl_site581] | 9.91 |
| GTGGAACGTATATTTTCACACACTCTCAAAAGTACA [CACACA_site8722] | 6.42 |
| AAATAATGTTTGAATTGTACACATATTTGTGTTTCT [XGTACX_site4603] | 6.34 |
| ATGAACATATCAATTCTCAAAATAGGATGAGAGCAT [CACACA_negctrl_site230] | 6.61 |
| AATTTTTGTATTTTTAGTACTTAATTTCAAAATAAC [XGTACX_site4234] | 6.29 |
| AATATTATAAATGTCACACATATATTCAAATATATA [CACACA_site4736] | 6.34 |

| Sequence | gcPBM binding intensity (ln) |
| --- | --- |
| GTGGAACATATGAACTCACACACATTTTCACTTAAA [CACACA_site3683] | 6.38 |
| GAATGGACGTTAGGGGGTACGTATAAAATTTATCAA [XGTACX_site683] | 7.4 |
| TTTGTGATATTATATTGTACCCTATATTTATTATAA [XGTACX_site4240] | 6.5 |
| TTTATTGACAATTTATGTACATATAATTGAAAAATA [XGTACX_site6634] | 6.51 |
| GTTCAATTTTTAGGAAGTACAAAAAAAAAAAAGAAA [XGTACX_site7286] | 6.12 |
| ATGGTACATACATACACACACACAAAAAAAAAAAAA [CACACA_site1578] | 6.41 |
| TATATTTGTATTGTTTGTACTTATATGAATTTATAT [XGTACX_site4228] | 6.4 |
| TATATTAGTGTTGACACACACAAAAAAAAAAAAAAA [CACACA_site1396] | 6.09 |
| CAAACCTATATACAAACATGCAATCCACATATTGGT [TGCATGCA_site756] | 6.41 |
| ATTTGTTACGGACATGCATGCGAATCAGGGTATATA [TGCATGCA_site154] | 7.34 |
| TATAAAAAAAAAAAATATATATATATATAAATATAA [TGCATGCA_negctrl_site367] | 6.34 |
| TAAAAATATTTTCATTGTACATATATATAAATATAT [XGTACX_site1123] | 6.46 |
| TAAGAAAAAAAAAAAAAAAAAAAAAAAAAAAAAAAA [CACACA_negctrl_site760] | 6.15 |
| TAATGAAATTGTAGTAGTACCTTCTTATAAATAAAA [XGTACX_site6747] | 5.97 |
| TCACCTATTTTTAACTGTACTGAAATGATATATATA [XGTACX_site1366] | 6.72 |
| TTGAGGAAATAACAGTGTACAAACAAATTATTACCA [XGTACX_site7082] | 6.18 |
| TACATATATATATATATATATATATATATCATTATG [XGTACX_negctrl_site293] | 7.58 |
| CTTATATTAATTATTACACACATATTTATAAATGCA [CACACA_site6501] | 6.66 |
| TTTTCCATAAGAATTACACACAGAAAGGATAAGTAT [CACACA_site105] | 6.93 |
| ATAGAAATATTATATTGTACGAACAGTTATTAACAA [XGTACX_site2137] | 6.56 |
| ACATGTAAATGGAAAAGTACTAATAACTTGTATTGG [XGTACX_site5181] | 6.39 |
| ATTATTTGTTTAAATTCACACACGTATATATATTTA [CACACA_site3050] | 6.68 |

| Sequence | gcPBM binding intensity (ln) |
| --- | --- |
| ATATATAAATATATTACACACTTTTTCTTTTTTTTT [CACACA_site7332] | 6.54 |
| TAATTATTAAAACATTGTACATTATTATAAACAATT [XGTACX_site4489] | 6.33 |
| TTATTTTAATATAAAATACACACTACTATTATAAAT [CACACA_site1470] | 6.31 |
| TATTACATACAATATTGTACATATCATATTTTGAAT [XGTACX_site2191] | 6.69 |
| TATATATATATTATCACACACTCACGTTTGACAAAA [CACACA_site689] | 8.36 |
| TTATTTATTTATTCATGTACGTGTATTTTTTAAAAA [XGTACX_site7915] | 6.9 |
| TAATAAATACAAAAATGTACACACATATATATATTT [XGTACX_site7430] | 6.23 |
| AGTGTCATATTAACACGTACATAATTATTGTAGAGA [XGTACX_site568] | 6.8 |
| ATTGGGTACAAATACACACACATATATATATTAAGA [CACACA_site5330] | 6.84 |
| ATATTTACCTTTGTATGTACATATATAAAATATATC [XGTACX_site6367] | 6.61 |
| TTTTGTAAAAAGAAAAATTAGAATATATCGTATATA [XGTACX_negctrl_site617] | 6.03 |
| AAAGAAAAATTAACATGTACAAAAATTACTTGTTCA [XGTACX_site6725] | 5.93 |
| GTATTTTTACAAATTTGTACATATATATGAATATAC [XGTACX_site6717] | 7.48 |
| GTATATAAATATATATATATATATATATCTATATTT [CACACA_negctrl_site871] | 6.68 |
| TCTGAAACAAGAAAAAGTACACAAATTACAAAACTA [XGTACX_site7641] | 6.56 |
| AAAAAAAATTCACACTGTACAAAAGCATAAATAAAC [XGTACX_site5408] | 6.89 |
| TATAAATATTTATAAACACACAAATATATATATTTA [CACACA_site27] | 6.61 |
| TTATATATATAGAAGTGTACAAAATTTCCTAGACCT [XGTACX_site3900] | 6.55 |
| GCACGCTGTATGAATGCACACATTCATAGAATTGCT [CACACA_site8852] | 9.48 |
| ATCAAAATGTTAAAGATACACACCTAACAAACACAA [CACACA_site955] | 7 |
| TATCGACATTTCATTTGTACATATATACATATATTT [XGTACX_site3346] | 6.48 |
| CCAATAATATATAGAAGTACAGAAAAAAAAAAAAAA [XGTACX_site2049] | 6.47 |
